# Hit rate of the full screen: of about 310,000 compounds, about 14,000 (4.5%) showed an effect of 50% or more. Effects have a minus sign here. The list shows a part of the results.
# Biological target: human ether-à-go-go-related gene (hERG) potassium channel (human, UniProt Q12809)
# Test: primary screen, population patch clamp on CHO cells stably expressing hERG
# 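Also: peak tail current of the secondary pulse compared with the same well before compound.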
# Sequence of human ether-à-go-go-related gene (hERG) potassium channel (Q12809 whole entry, looked up): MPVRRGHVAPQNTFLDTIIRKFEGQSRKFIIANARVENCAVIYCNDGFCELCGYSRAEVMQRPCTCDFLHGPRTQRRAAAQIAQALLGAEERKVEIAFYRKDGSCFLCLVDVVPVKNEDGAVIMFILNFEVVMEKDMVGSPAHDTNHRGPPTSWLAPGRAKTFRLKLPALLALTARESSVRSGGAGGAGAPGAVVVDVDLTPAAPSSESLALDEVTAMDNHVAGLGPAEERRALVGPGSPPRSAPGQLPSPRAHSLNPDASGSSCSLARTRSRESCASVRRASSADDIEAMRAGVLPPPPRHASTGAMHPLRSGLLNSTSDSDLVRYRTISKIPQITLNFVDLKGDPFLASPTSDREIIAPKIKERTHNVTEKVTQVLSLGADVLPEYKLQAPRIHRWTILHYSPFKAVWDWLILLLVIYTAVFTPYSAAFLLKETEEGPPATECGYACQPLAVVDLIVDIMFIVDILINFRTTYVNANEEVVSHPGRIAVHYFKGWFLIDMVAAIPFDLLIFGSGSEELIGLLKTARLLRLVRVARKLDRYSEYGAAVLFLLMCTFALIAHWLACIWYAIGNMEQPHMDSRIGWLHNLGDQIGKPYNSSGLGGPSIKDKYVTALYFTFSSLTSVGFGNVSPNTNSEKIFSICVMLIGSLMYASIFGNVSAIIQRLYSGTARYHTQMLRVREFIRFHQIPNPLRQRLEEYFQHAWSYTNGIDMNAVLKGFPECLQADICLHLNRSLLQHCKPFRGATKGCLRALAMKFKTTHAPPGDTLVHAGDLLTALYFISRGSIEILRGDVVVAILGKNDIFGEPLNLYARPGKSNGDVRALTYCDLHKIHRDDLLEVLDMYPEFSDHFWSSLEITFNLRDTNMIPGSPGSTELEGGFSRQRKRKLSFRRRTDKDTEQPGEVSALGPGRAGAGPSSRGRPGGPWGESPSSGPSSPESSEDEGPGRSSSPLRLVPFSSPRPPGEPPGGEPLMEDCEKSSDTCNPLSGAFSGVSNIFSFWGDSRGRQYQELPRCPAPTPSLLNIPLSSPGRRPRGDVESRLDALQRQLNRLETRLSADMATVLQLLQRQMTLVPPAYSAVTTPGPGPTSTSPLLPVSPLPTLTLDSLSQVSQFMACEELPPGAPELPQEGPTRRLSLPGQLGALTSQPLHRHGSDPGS
row,SMILES,"hERG current change (%, negative = inhibition) at 10uM [%]"
1,Fc1ccc(C2=CC(c3ccco3)n3ncnc3N2)cc1 (stereo not drawn),-11.3
2,O=C(O)c1cccc(N/N=C/c2ccc(F)c(F)c2)c1,12.4
3,Cc1ccc(F)cc1NC(=O)CSc1nc(Nc2ccccc2)nc(N2CCOCC2)n1,-3.75
4,CCN(C(=O)Cn1c(=O)n(-c2cc(OC)c(OC)c(OC)c2)c(=O)c2ccccc21)c1cccc(C)c1,12.3
5,COc1ccccc1-c1nc(-c2cccc(C)c2)no1,2.36
6,O=C(c1cccs1)N(C(=O)c1cccs1)c1ccccn1,9.68
7,COc1ccc2nc(/N=C\N(C)C)sc2c1,-5.89
8,N#CC(c1ccccc1)c1cccc(Cl)n1 (stereo not drawn),7.45
9,CCCn1c(N)c(N(CCOC)C(=O)c2ccc(-c3ccc(Cl)cc3)o2)c(=O)[nH]c1=O,3.31
10,COc1ccc(C)cc1NCc1ccc(OC)c(C)c1OC.O=C(O)C(=O)O,-2.3
11,Cc1nc2c(C)c(C)c(C)c(C)c2nc1C,8.49
12,O=C(c1ccc(Cn2cc([N+](=O)[O-])cn2)o1)N1N=C(C(F)F)CC1(O)C(F)F (stereo not drawn),-20.4
13,O=C1C(Cl)=C(Nc2ccccc2)C(=O)c2ccccc21,-1.76
14,CC(C)c1ccc(NC(=O)Cc2c(C(=O)O)n(C)c3ccccc23)cc1,13.7
15,O=C(Nc1ccccc1)c1cccn(Cc2ccccc2)c1=O,13.7
16,Cc1cc[n+](C(C)C(=O)c2ccc(Cl)cc2)cc1.[Br-] (stereo not drawn),-10.5
17,Cc1ccn2c(CN3CCOCC3)c(-c3ccccc3)nc2c1,-31.5
18,Cc1ccc(-c2csc(N(Cc3ccco3)C(=O)c3cccs3)n2)cc1,11.6
19,Cn1ccnc1-c1nc2ccccc2[nH]c1=O,1.04
20,COc1ccc(/C=C/C2=CC(C)(C)NC(=S)N2)c(OC)c1,31.6
21,O=C(CN1CCN(S(=O)(=O)c2ccc(F)c(Cl)c2)CC1)N1CCOCC1,6.2
22,COc1ccc2cc3c(N)nn(C(=O)Cc4ccccc4OC)c3nc2c1,-23.1
23,O=C(NC(c1ccccc1)c1ccccc1)N1CCOCC1,16.3

row,SMILES,"hERG current change (%, negative = inhibition) at 10uM [%]"
1,Nc1ccccc1Cl,10.3
2,CSc1nc(O)c(Nc2cccc(Cl)c2)c(=O)[nH]1,15
3,O=C(C1CCCN(S(=O)(=O)c2ccccc2)C1)N1CCCc2ccccc21 (stereo not drawn),-30.2
4,O=C(Nc1ccnn1C1CCN(C/C=C/c2ccc(F)cc2)CC1)C1CCCC1,-76.2
5,COc1cc(/C=N\NS(=O)(=O)c2ccccc2)cc(OC)c1OC,14.2
6,CCCCNC(=O)COC(=O)c1ccc(Cl)c(S(N)(=O)=O)c1,6.27
7,COc1ccc(S(=O)(=O)Nc2ccc3c(c2)OCO3)cc1OC,21.7
8,CC(=O)N1CCN(C(=O)c2cc(S(=O)(=O)N(C)c3ccc(F)cc3)ccc2Cl)CC1,-14.2
9,NS(=O)(=O)c1ccc(-c2ccc(C=C3C(=O)NC(=S)NC3=O)o2)cc1,18.8
10,Cc1cccc(C(=O)N2CCCC(Nc3ccc(C)c(C)c3)C2)n1 (stereo not drawn),5.87
11,Cc1ccc2oc(=O)c3cnn(CC(=O)NCCN(C)C)c3c2c1,9.34
12,Cl.O=C(CNCCO)N1CCc2ccccc21,-5.27
13,N[C@@H](Cn1oc(=O)[nH]c1=O)C(=O)O,14.6
14,CCCCOc1ccc(C(=O)NC)cc1,6.96
15,CCOC(=O)CN1C(=O)/C(=C/c2c(F)cccc2Cl)Oc2ccccc21,9.08
16,Cc1cc(N2CCCCC2)nc(NCc2ccccc2)n1,-35.2
17,CCOC(CNC(=O)CN1C(=O)COc2ccc(S(=O)(=O)N3CCCC3)cc21)OCC,16
18,CC(=O)c1cccc(NC(=O)CCNS(=O)(=O)c2cccc3nsnc23)c1,12.9
19,Cc1ccc(C2=NN(CCC(=O)NCCC(C)C)C(=O)CC2)cc1,-24.5
20,O=C(CN(C(=O)c1csnn1)c1cccc2ccccc12)NCc1ccc(F)cc1,-33.3
21,Cn1c(SCC(=O)Nc2nncs2)nnc1C1CC1,4.58
22,CC12CC3CC(C)(C1)CC(C(=O)N1CCN(C(=O)c4ccco4)CC1)(C3)C2,-25.6
23,COc1ccccc1C(=O)NNC(=O)c1csc(N2CCOCC2)n1,8.26

row,SMILES,"hERG current change (%, negative = inhibition) at 10uM [%]"
1,O=C(/C=C/c1cccc(F)c1)N1CCc2ccccc21,4.51
2,COc1cc2[nH]c(C(=O)N3CCN(c4ccccc4F)CC3)cc2c(OC)c1OC,0.943
3,O=C(CSc1nncc2ccccc12)N1CCCCC1,11.1
4,COc1ccc(/C=C2\COc3ccccc3C2=O)c(OC)c1,-1.37
5,COC(=O)c1ccc(CSc2nnc(-c3c[nH]c4ccccc34)n2-c2ccccc2)cc1,1.78
6,O=C(Nc1ccccn1)c1cc(-c2cccnc2)nc2ccc(Br)cc12,14.2
7,C/C(=N/NC(=O)CCc1c(C)n[nH]c1C)c1cccc([N+](=O)[O-])c1,2.87
8,CCCCCc1c(C)c(C#N)c2nc3ccccc3n2c1-n1ccnc1C,-21.2
9,O=C(CCCCCBr)N1CCC(CC2CC(c3ccc(Cl)cc3)=NO2)(C(=O)NCC2CCCCC2)CC1 (stereo not drawn),-74.6
10,CCC(C)N(C)C1CCN(C(=S)Nc2cccc(SC)c2)CC1 (stereo not drawn),-45.8
11,CCn1c(SCC(=O)N(C)Cc2ccc(OC)c(F)c2)nc2cc(S(N)(=O)=O)ccc21,-19
12,O=C(Nc1nc2ccccc2[nH]1)c1cccc(Br)c1,2.65
13,Cc1ccccc1OCC(=O)Nc1ccccc1C(=O)NC1CC1,-7.92
14,Cc1ccc(C)c(NC(=O)COC(=O)c2cccc3c2C(=O)c2ccccc2C3=O)c1,-14.2
15,CCOC(=O)C1Nc2ccc(Br)cc2C2C=CCC12 (stereo not drawn),13.6
16,CC(C)[C@H](NC(=O)Nc1cccc(C(F)(F)F)c1)C(=O)O,5.82
17,O=C1CC2(CCN(C(=O)COc3ccccc3F)CC2)Oc2ccccc21,-49.1
18,Cc1ccccc1NC(=O)C(=O)N/N=C/c1cccc(Br)c1,-2.27
19,CCOC(=O)C1Cn2c(nc3c(c2=O)C(C)(CC)Cc2ccccc2-3)S1 (stereo not drawn),-0.248
20,COc1ccc(CN2CCCC(C(=O)c3sccc3C)C2)cc1O (stereo not drawn),-71.9
21,O=C(C[n+]1cccc(CNC(=O)c2ccc(OC(F)F)cc2)c1)Nc1ccc(F)cc1.[Cl-],-16.8
22,N#Cc1c(NC(=O)c2ccccc2Cl)n(Cc2ccccc2)c2nc3ccccc3nc12,7.77
23,COc1cccc(-c2nc(S(=O)(=O)c3ccccc3)c(N3CCOCC3)o2)c1,-38.2

row,SMILES,"hERG current change (%, negative = inhibition) at 10uM [%]"
1,CC(C)(C)OC(=O)N1CCCC1C(=O)NCCc1ccccc1 (stereo not drawn),13.4
2,COc1cccc(CNC(=O)COC(=O)c2c(C)nn(-c3ccccc3)c2Cl)c1,-9.35
3,COCCNC(=S)N(c1ccccc1)C(C)C,-4.64
4,CCCCNC(C(=O)Nc1ccc([N+](=O)[O-])cc1Br)c1ccccc1 (stereo not drawn),5.72
5,CCOC(=O)N1CCN(C(=O)C2CCCN(S(=O)(=O)c3ccc(F)cc3)C2)CC1 (stereo not drawn),-10.1
6,COCCOc1ccc(C(F)(F)F)cc1NC(=O)COC(=O)c1c(C)noc1C,-5.64
7,Cc1ccc(CNC(=O)C(=O)NCCC2CCCCN2S(=O)(=O)c2ccccc2)cc1 (stereo not drawn),-26.6
8,CC(=O)Cc1ccccc1OC(=O)c1ccco1,23.6
9,COc1cccc(CSc2nc3ccncc3[nH]2)c1,-10.4
10,CC(C)C(NC(=O)c1ccco1)C(=O)NCc1ccc(C(=O)O)cc1 (stereo not drawn),22.8
11,O=C1C=C(NNC(=O)c2cccnc2)CC(c2ccco2)C1 (stereo not drawn),10.8
12,CCc1ccc(NC(=O)CSc2nnc(CNC(=O)c3ccc(OC)cc3)o2)cc1,-9.12
13,CCOC(=O)C1=C(COC(=O)/C=C/c2ccccc2Cl)NC(=O)NC1C (stereo not drawn),-0.794
14,CCOc1ccccc1CNC(=O)CCc1cn(CC)c2ccccc12,-31.9
15,O=C(Cc1ccccc1)N/N=C/c1ccccc1OCc1ccc(Cl)cc1,21.7
16,Cc1ccc(NC2=NCC(=O)N2C2CCCC2)c(C)c1.Cl,0.358
17,O=C(CCSc1nnc(-c2ccco2)o1)Nc1ccc(F)cc1,8.75
18,COc1ccc(OCc2nnc(SCC(=O)Nc3ccccc3Cl)o2)cc1,13.7
19,Cc1nc(Cc2nnc(SC(C)C(=O)Nc3cccc(C#N)c3)o2)cs1 (stereo not drawn),13.1
20,COc1cc(C(=O)NCc2nnc(SCC(=O)N3CCCc4ccccc43)o2)cc(OC)c1OC,-1.5
21,CCCCn1c(=O)c(C(=O)NCCc2ccccc2)c(O)c2ccccc21,24.4

# — article PMC4336329 (PLoS ONE, 2015)
